# This is one part of the list.
# Assays:
# Assay in all cases: glycan array binding signal (z-score within array); higher = stronger binding
# Settings in all cases: glycan notation: IUPAC condensed, linker removed
# [1] = target: Fuc(a1-3)[Gal3S(b1-4)]GlcNAc
# Outline: (§1)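 Glycan array binding is given as a within-array Z-score, which can be read as non-binding when negative. The arrays, 3228 of them, came from the Consortium for Functional Glycomics database and were retained only where the protein sequence was available. Z-scores were averaged across arrays of the same protein sequence at different concentrations or buffers and across linkers.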
# [2] = target: Fuc(a1-3)[Gal3S(b1-4)]GlcNAc6S
# Outline: as §1
# [3] = target: Fuc(a1-3)[GalNAc(b1-4)]GlcNAc
# Outline: as §1
# [4] = target: Fuc(a1-3)[GalNAc(b1-4)]GlcNAc6S
# Outline: as §1
# [5] = target: Fuc(a1-4)GlcNAc
# Outline: as §1
# [6] = target: Fuc(b1-3)GlcNAc
# Outline: as §1
# [7] = target: Gal(a1-2)Gal
# Outline: as §1
# [8] = target: Gal(a1-3)Gal
# Outline: as §1
# [9] = target: Gal(a1-3)Gal(b1-3)GlcNAc
# Outline: as §1
# [10] = target: Gal(a1-3)Gal(b1-3)GlcNAc(b1-2)Man
# Outline: as §1
# [11] = target: Gal(a1-3)Gal(b1-3)GlcNAc(b1-2)Man(a1-3)[Gal(a1-3)Gal(b1-3)GlcNAc(b1-2)Man(a1-6)]Man(b1-4)GlcNAc(b1-4)GlcNAc
# Outline: as §1
# [12] = target: Gal(a1-3)Gal(b1-3)GlcNAc(b1-3)GalNAc
# Outline: as §1
# [13] = target: Gal(a1-3)Gal(b1-3)GlcNAc(b1-6)GalNAc
# Outline: as §1
# [14] = target: Gal(a1-3)Gal(b1-3)[Fuc(a1-4)]GlcNAc(b1-2)Man(a1-3)[Gal(a1-3)Gal(b1-3)[Fuc(a1-4)]GlcNAc(b1-2)Man(a1-6)]Man(b1-4)GlcNAc(b1-4)GlcNAc
# Outline: as §1
# [15] = target: Gal(a1-3)Gal(b1-4)Glc
# Outline: as §1
# [16] = target: Gal(a1-3)Gal(b1-4)GlcNAc
# Outline: as §1
# [17] = target: Gal(a1-3)Gal(b1-4)GlcNAc(b1-2)Man
# Outline: as §1
# [18] = target: Gal(a1-3)Gal(b1-4)GlcNAc(b1-2)Man(a1-3)[Gal(a1-3)Gal(b1-4)GlcNAc(b1-2)Man(a1-6)]Man(b1-4)GlcNAc(b1-4)GlcNAc
# Outline: as §1
# [19] = target: Gal(a1-3)Gal(b1-4)GlcNAc(b1-3)GalNAc
# Outline: as §1
# [20] = target: Gal(a1-3)Gal(b1-4)GlcNAc(b1-6)GalNAc
# Outline: as §1
# [21] = target: Gal(a1-3)Gal(b1-4)[Fuc(a1-3)]GlcNAc
# Outline: as §1
# [22] = target: Gal(a1-3)Gal(b1-4)[Fuc(a1-3)]GlcNAc(b1-2)Man(a1-3)[Gal(a1-3)Gal(b1-4)[Fuc(a1-3)]GlcNAc(b1-2)Man(a1-6)]Man(b1-4)GlcNAc(b1-4)GlcNAc
# Outline: as §1
# [23] = target: Gal(a1-3)GalNAc
# Outline: as §1
# [24] = target: Gal(a1-3)[Gal(a1-4)]Gal(b1-4)GlcNAc
# Outline: as §1
# [25] = target: Gal(a1-4)Gal(b1-3)GlcNAc(b1-2)Man(a1-3)[Gal(a1-4)Gal(b1-3)GlcNAc(b1-2)Man(a1-6)]Man(b1-4)GlcNAc(b1-4)GlcNAc
# Outline: as §1
# [26] = target: Gal(a1-4)Gal(b1-4)Glc
# Outline: as §1
# [27] = target: Gal(a1-4)Gal(b1-4)GlcNAc
# Outline: as §1
# [28] = target: Gal(a1-4)Gal(b1-4)GlcNAc(b1-2)Man(a1-3)[Gal(a1-4)Gal(b1-4)GlcNAc(b1-2)Man(a1-6)]Man(b1-4)GlcNAc(b1-4)GlcNAc
# Outline: as §1
# [29] = target: Gal(a1-4)Gal(b1-4)GlcNAc(b1-3)Gal(b1-4)Glc
# Outline: as §1
# [30] = target: Gal(a1-4)GlcNAc
# Outline: as §1
# [31] = target: Gal(a1-6)Glc
# Outline: as §1
# [32] = target: Gal(b1-2)Gal
# Outline: as §1
# [33] = target: Gal(b1-3)Gal
# Outline: as §1
# [34] = target: Gal(b1-3)Gal(b1-4)GlcNAc
# Outline: as §1
# [35] = target: Gal(b1-3)GalNAc
# Outline: as §1
# [36] = target: Gal(b1-3)GalNAc(a1-3)[Fuc(a1-2)]Gal(b1-4)Glc
# Outline: as §1
# [37] = target: Gal(b1-3)GalNAc(a1-3)[Fuc(a1-2)]Gal(b1-4)GlcNAc
# Outline: as §1
# [38] = target: Gal(b1-3)GalNAc(b1-3)Gal
# Outline: as §1
# [39] = target: Gal(b1-3)GalNAc(b1-3)Gal(a1-4)Gal(b1-4)Glc
# Outline: as §1
# [40] = target: Gal(b1-3)GalNAc(b1-4)Gal(b1-4)Glc
# Outline: as §1
# [41] = target: Gal(b1-3)GalNAc(b1-4)[Neu5Ac(a2-3)]Gal(b1-4)Glc
# Outline: as §1
# [42] = target: Gal(b1-3)GlcNAc
# Outline: as §1
# [43] = target: Gal(b1-3)GlcNAc(a1-3)Gal(b1-4)GlcNAc
# Outline: as §1
# [44] = target: Gal(b1-3)GlcNAc(a1-6)Gal(b1-4)GlcNAc
# Outline: as §1
# [45] = target: Gal(b1-3)GlcNAc(b1-2)Man
# Outline: as §1
binder,measurement,setting,value
SP16664B-bot-474-25-474 (Bacteroides ovatus) (protein) CEEDIEIGNKIDESSYLASTQLSGLLLDENTNKNSSVIELRNNEYSTNVVFRLSKLPQKGVDVQIAVEESYAAIYNTIHETDFEVFPAANVKIANNGTFVLAPDDKVTPSVKVTLTAFDGMEEDKTYIVPLTVTSSTEGVTFTETSKHMVLLVQDYRNKPNTNKGEDAVQTVLYFEVNDTNPLNALEFLTESGKYFFDHIVLFAANINWDPEKQRVYLANNENVQFLLDNNDKYLQPLRKAGMKIIISILGNHDEAGVAQLSDMGAREFARELAAYCRAYNLDGVAFDDEYSNSPDLSNPWLASPSAYAGSRLMYECKAVMPEKIVSLYNLGNMYSSSLQVIDGIEPGQYCDYAVADYGGAAGPGTGMTLKQCAGMSIELRRGSGNSSESTARSRKEAGYGYYMFFALDPSLYGSQVYRCQSVCKGLYDETLVYPSYYYKKNSTEREAIN,glycan array binding signal (z-score),[1],-0.433
same,glycan array binding signal (z-score),[2],0.315
same,glycan array binding signal (z-score),[3],0.422
same,glycan array binding signal (z-score),[4],0.153
same,glycan array binding signal (z-score),[5],2.34
same,glycan array binding signal (z-score),[6],-0.322
same,glycan array binding signal (z-score),[7],0.194
same,glycan array binding signal (z-score),[8],-0.094
same,glycan array binding signal (z-score),[9],-0.027
same,glycan array binding signal (z-score),[10],-0.189
same,glycan array binding signal (z-score),[11],-0.011
same,glycan array binding signal (z-score),[12],0.023
same,glycan array binding signal (z-score),[13],0.049
same,glycan array binding signal (z-score),[14],1.43
same,glycan array binding signal (z-score),[15],-0.427
same,glycan array binding signal (z-score),[16],-0.691
same,glycan array binding signal (z-score),[17],-0.237
same,glycan array binding signal (z-score),[18],2.23
same,glycan array binding signal (z-score),[19],0.386
same,glycan array binding signal (z-score),[20],0.21
same,glycan array binding signal (z-score),[21],-0.366
same,glycan array binding signal (z-score),[22],1.65
same,glycan array binding signal (z-score),[23],-0.504
same,glycan array binding signal (z-score),[24],-0.405
same,glycan array binding signal (z-score),[25],1.04
same,glycan array binding signal (z-score),[26],0.803
same,glycan array binding signal (z-score),[27],-0.079
same,glycan array binding signal (z-score),[28],0.187
same,glycan array binding signal (z-score),[29],-0.137
same,glycan array binding signal (z-score),[30],-0.657
same,glycan array binding signal (z-score),[31],-0.124
same,glycan array binding signal (z-score),[32],0.102
same,glycan array binding signal (z-score),[33],-0.262
same,glycan array binding signal (z-score),[34],-0.352
same,glycan array binding signal (z-score),[35],-0.34
same,glycan array binding signal (z-score),[36],-0.096
same,glycan array binding signal (z-score),[37],-0.291
same,glycan array binding signal (z-score),[38],-0.2
same,glycan array binding signal (z-score),[39],-0.467
same,glycan array binding signal (z-score),[40],-0.409
same,glycan array binding signal (z-score),[41],-0.167
same,glycan array binding signal (z-score),[42],-0.12
same,glycan array binding signal (z-score),[43],-0.335
same,glycan array binding signal (z-score),[44],-0.477
same,glycan array binding signal (z-score),[45],0.003

# — the supplement of paper PMC8728848
